Sequences with one replicate were seen in a single cluster, so their values are uncertain.
system: ATP; assay: switch fluorescence ratio, 500 uM ATP over buffer (Cy3 cluster intensity, sum of 5 cycles each) (fold (ratio)); higher = stronger signal-on switching upon ATP binding; sequences stand for … in TCGTCGGCAGCGTCAGATGTGTATAAGAGACAGTTTTTTTTTTTTTTTTTTTTTTTTT…TC; settings: aptamer strand: ATP DNA aptamer (quencher-CACCTGGGGGAGTATTGCGGAGGAAGG + anchor), 100 nM annealed; ATP concentration: 500 uM; one replicate
Outline: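 Values give the fluorescence ratio for each switch-domain sequence, averaged from per-cluster ratios of summed target-cycle to summed buffer-cycle Cy3 intensity. The Cy3-labelled switching-strand clusters sat on a modified Illumina MiSeq flow-cell, were annealed to 100 nM quencher-labelled ATP aptamer, and were imaged in selection buffer, then after 15 min with 500 uM ATP at 22 °C. Five cycles ran with NaOH stripping and re-annealing between them, and clusters outside 100-1000 RFU were excluded.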
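Note: ATP exposure 15 min at 22 °C before imaging.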

Sequence	switch fluorescence ratio
ACTGTATGGT	1.03
ACTGTATTT	1.18
ACTGTCTGAA	0.965
ACTGTGGCGC	1.02
ACTGTGTACG	1.05
ACTGTGTTT	1
ACTGTTGATC	0.993
ACTGTTGGTT	1.02
ACTTAAGCAC	1.37
ACTTAATATG	0.969
ACTTACATTG	1.2
ACTTACGGG	1.44
ACTTAGCGG	1.04
ACTTAGTACG	1.09
ACTTAGTTGG	0.978
ACTTATCTGA	1.02
ACTTCAG	0.975
ACTTCCTGAT	1.08
ACTTCGGGGA	0.985
ACTTGAAGCG	1.01
ACTTGAGAGC	1.06
ACTTGAGGCG	1.04
ACTTGAGTG	0.96
ACTTGCAGAG	0.997
ACTTGCCAG	0.953
ACTTGCCCCT	1

Sequence	switch fluorescence ratio
ACTTGCCGGA	1.01
ACTTGCGCAA	2.59
ACTTGGATA	1.01
ACTTGGGTTC	0.979
ACTTGTGCTG	1
ACTTTCAGAT	1.04
ACTTTCAGTT	1.02
ACTTTCGAGG	1.05
ACTTTCGATA	1.03
ACTTTCGCAT	1.68
ACTTTCTTAT	1.02
ACTTTGACCC	1.13
ACTTTTAATT	1.03
ACTTTTGGC	1.02
ACTTTTTC	1.03
AGAAAACAAA	1.12
AGAAAACTGA	1.04
AGAAAAGCCA	0.969
AGAAAAGTAA	1.02
AGAAACCCAG	1.02
AGAAACGCGA	1.06
AGAAATATGG	0.987
AGAAATCTCT	1.03
AGAACCGTTA	1
AGAACGAAGA	1.02
AGAACGCCTT	1.02

Sequence	switch fluorescence ratio
AGAACGCGTT	0.968
AGAACGGTAA	1.05
AGAACTCCTC	1.05
AGAAGATAGC	1.06
AGAAGGGAGC	0.994
AGAAGGGGAA	1
AGAATAACGA	1.01
AGAATAATTT	1.04
AGAATCGCGC	0.997
AGAATGCCGT	1
AGAATGGCTA	0.968
AGAATTAATT	0.99
AGAATTGCTG	1.03
AGAATTGTTG	0.956
AGACAAAGGG	1.02
AGACAAGATA	1
AGACAATCTG	1.06
AGACAGAAGG	0.985
AGACAGTGGT	1
AGACCAGAGG	1.1
AGACCGCACT	1.53
AGACCGCAGC	2.2
AGACCTAAG	0.984
AGACGAAGGC	0.997
AGACGCAGG	1.03
AGACGCTCCA	1.1

Sequence	switch fluorescence ratio
AGACGCTCTA	1.04
AGACGTAAAA	1.63
AGACGTCCCC	1.07
AGACGTTGCT	0.991
AGACTCGGGA	0.996
AGACTGCACT	1.38
AGACTGTACA	1.37
AGACTTGTTG	0.995
AGAGAATGAA	0.983
AGAGAGGGGG	0.976
AGAGAGTAAT	1.03
AGAGATAAAG	1.03
AGAGATACA	1.02
AGAGATTCC	1.02
AGAGCCATAC	3.74
AGAGCCCCTT	0.996
AGAGCCGTTA	1.13
AGAGCTACGA	0.977
AGAGCTTTA	0.967
AGAGGAAATG	1.04
AGAGGAACCG	0.984
AGAGGAATAG	1.15
AGAGGAGGAG	1.01
